This is an account of results in PubChem BioAssay AID1240 (Sanford-Burnham Center for Chemical Genomics, 2008).

Out of some 50,000 compounds screened, about 800 (1.6%) showed an effect of 50% or more. The list shows a part of the results.

This experiment deals with Bcl-2-like protein 10 (Homo sapiens) (UniProt Q9HD36). Briefly: Phenotype converters, Bcl-B/TR3 peptide binding displacement, primary biochemical FP (AID 1240).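 Further: 0% = Bcl-B with tracer peptide and DMSO and 100% = tracer peptide lacking Bcl-B.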 To be noted: GST-Bcl-B / FITC-TR3 peptide fluorescence polarization; stronger effect = higher value; compound at 3.75 mg/L. On the technique in general: In fluorescence polarisation assays a small probe gives low polarisation when free and higher when bound to something large.
UniProt Q9HD36, sequence (Q9HD36 whole entry, looked up): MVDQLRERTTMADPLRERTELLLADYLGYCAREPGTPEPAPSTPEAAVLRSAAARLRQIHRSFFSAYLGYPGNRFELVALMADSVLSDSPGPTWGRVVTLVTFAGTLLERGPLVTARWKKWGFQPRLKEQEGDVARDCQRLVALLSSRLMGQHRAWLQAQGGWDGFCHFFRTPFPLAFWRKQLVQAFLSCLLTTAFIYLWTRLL
On to `O=C(CCC1CCCC1)Nc1nc(-c2ccc(F)cc2)cs1`, for which the displacement is -10.3%.

Regarding `COc1ccc(N(CC(=O)N(Cc2ccccc2)Cc2ccccc2)S(C)(=O)=O)cc1`, the displacement was 1.7%.

`C=CCOC(=O)C1=C(C)NC(C)=C(C(=O)OCC=C)C1c1ccc(OC)cc1`: the displacement was found to be 11.7%.

`CCCc1ncc(C(O)c2ccc(OC)c(OC)c2)n1C` (stereo not drawn): the displacement is -3.5%.

Regarding `CC(=O)NCCCc1oc2ccc(O)cc2c1[N+](=O)[O-]`, the displacement is -3.4%.

As to `O=C(CN(c1cccc([N+](=O)[O-])c1)S(=O)(=O)c1ccccc1)NCc1ccc(Cl)cc1Cl`, the displacement was determined as 2%.

As to `C=CCNC(=O)CN(c1cccc(Cl)c1)S(=O)(=O)c1ccccc1`, the displacement is 12.1%.

As to `COn1c(=O)c(=O)n(OCc2ccccc2)c2ccccc21`, the displacement was 14.4%.

Regarding `CC(C)CCn1c(=O)[nH]c2ccccc21`, the displacement was determined as 10.2%.

In the case of `CCOc1ccccc1NC(=O)C(=O)N/N=C/c1ccc([N+](=O)[O-])cc1`, the displacement was -3.5%.

Regarding `Cc1nn(-c2ccccc2)c(C)c1/C=N/O`, the displacement is 3.2%.

On to `CCOc1ccccc1N1C(=O)CC(Sc2ccccc2C(=O)O)C1=O` (stereo not drawn), for which the displacement was determined as 7.8%.

`O=C1/C(=C/c2cccs2)SC(=S)N1c1ccc(Br)cc1`: the displacement was -1.9%.

As to `CCOC(=O)c1ccccc1NC(=O)C(C)Oc1ccc(Cl)cc1C` (stereo not drawn), the displacement was -6.9%.

With `CCc1ccc(NC2=C(Cl)C(=O)N(c3ccc(C)cc3C)C2=O)cc1`, the displacement was 45.2%.

`CCOc1ccc(/C=C2/SC(=O)N(CN3CCCCC3)C2=O)cc1`: the displacement was -1.7%.

For the molecule `CCC(C)NC(=O)C1CN(S(=O)(=O)c2ccccc2)CCN1S(=O)(=O)c1ccccc1` (stereo not drawn), the displacement was 2.7%.

As for `COC(=O)c1ccc(NS(=O)(=O)c2ccc(Cl)cc2)cc1`, the displacement is -9.8%.

Consider `COc1ccccc1NC(=O)c1ccc2c(c1)C(=O)N(c1ccccc1C)C2=O`, for which the displacement came to 7.1%.

Consider `Cc1ccc(C(=O)Nc2cccc(Cl)c2)o1`, for which the displacement is -1.2%.

For the molecule `Clc1cccc(C=NN2CCN(Cc3ccccc3)CC2)c1`, the displacement is -21.2%.

Turning to `COc1cc(/C=C2/SC(=S)N(c3ccccc3)C2=O)ccc1OC(=O)c1ccc([N+](=O)[O-])cc1`, the displacement worked out at 11.8%.

As to `Clc1ccc(C=NN2CCN(Cc3ccccc3Cl)CC2)cc1Cl`, the displacement was -3.3%.

In the case of `COc1ccc(/C(C)=N/N=C(\C)c2ccc(OC)cc2OC)c(OC)c1`, the displacement was -5%.

As for `O=[N+]([O-])c1ccc(N2CCOCC2)cc1NCCOc1ccc(F)cc1`, the displacement was -9.6%.

For `CSc1nsc(SC)c1C(=O)N1CCN(S(=O)(=O)c2ccc(C)cc2)C1C(C)C` (stereo not drawn), the displacement was -1.7%.

`Cc1nc2cc(-c3ccco3)[nH]n2c(=O)c1C`: the displacement was 17%.

`CCOc1cccc2sc(NC(=O)c3cccc([N+](=O)[O-])c3)nc12`: the displacement was -1.2%.

`NC(=O)SCC(=O)Nc1ccc(Cl)cc1`: the displacement was -24.1%.

For `C=CCn1c(=S)[nH]c2sc3c(c2c1=O)CCc1ccccc1-3`, the displacement was -4.7%.

`O=C1NC(=S)N(c2ccc(Cl)cc2)C(=O)C1=Cc1ccsc1`: the displacement was 8.3%.

Regarding `COc1ccc(/C=C2\SC(=S)N(CCCC(=O)Nc3ccccc3)C2=O)cc1`, the displacement came to 4.5%.

In the case of `Cc1cccc(C(=O)O)c1NC(=O)c1cccc([N+](=O)[O-])c1`, the displacement was determined as 11.4%.

As for `CC1=C(C(=O)OC(C)C)C(c2ccc(Cl)cc2)C2=C(CCCC2=O)N1` (stereo not drawn), the displacement was determined as 4.7%.

Consider `NNC(=O)CCc1nc2ccccc2[nH]1`, for which the displacement is -6%.

As for `O=C(NCc1ccccc1)c1cc2cc(Br)cc(Br)c2oc1=O`, the displacement amounted to 3.2%.

With `O=C(N/N=C/c1cc([N+](=O)[O-])ccc1N1CCCCCC1)c1ccccn1`, the displacement was -12.9%.

As to `COCCNCCOc1ccc(F)cc1`, the displacement is -1.9%.

As to `O=C(CN(c1cccc([N+](=O)[O-])c1)S(=O)(=O)c1ccccc1)N1CCc2ccccc2C1`, the displacement is 10.7%.

With `COc1ccc(C(NC(=O)c2ccccc2OC)c2ccc(OC)c(OC)c2)cc1OC`, the displacement is -13.6%.

For the molecule `CCOC(=O)CSc1nc2sc3c(c2c(=O)[nH]1)CCCC3`, the displacement was found to be 8.8%.

Consider `CC(=O)Nc1nc2c(s1)C(=O)CCC2`, for which the displacement is -3.5%.

Consider `Cc1ccc(NC(=O)c2cc3cc(Br)ccc3oc2=O)c(C)c1`, for which the displacement is -4%.

Take `COc1ccccc1-c1coc2c(CN3CCN(C)CC3)c(O)ccc2c1=O`: the displacement was -1.3%.

Take `Cc1ccc(C(=O)Nc2ccccc2)cc1S(=O)(=O)Nc1ccc(NC(=O)c2ccccc2)cc1`: the displacement is -15%.

As to `O=C(Nc1cc(Cl)ccc1O)c1cnn2c1NC(c1ccc(Br)cc1)CC2C(F)(F)F` (stereo not drawn), the displacement came to 11%.

As to `Cc1c(NC(=O)CN(c2ccccc2)S(C)(=O)=O)c(=O)n(-c2ccccc2)n1C`, the displacement was determined as 0.4%.

`O=C(NC1CCS(=O)(=O)C1)OC1CCCCC1` (stereo not drawn): the displacement is -3.8%.

As to `CN(C)C(=O)C(NC(=O)c1ccccc1)=C1CCCCC1`, the displacement was -6.7%.

On to `Cc1ccc(C2=C/C(=C/c3ccccn3)C(=O)O2)c(C)c1`, for which the displacement was -0.6%.

Consider `CC1=NN(c2ccc(S(N)(=O)=O)cc2)C(=O)/C1=C\c1ccc(N(C)C)c(Br)c1`, for which the displacement is -3.3%.

`CCOC(=O)/C=C1\NC(C)(C)Cc2cc(OC)c(OC)cc21`: the displacement is 3%.

Consider `O=C1NC(=Nc2ccc(Br)cc2)S/C1=C\c1ccc(O)cc1`, for which the displacement was determined as 10%.

Turning to `Cc1no[n+]([O-])c1COc1ccc(C=C2C(=O)NC(=S)NC2=O)cc1`, the displacement was -1.6%.

`CCc1c(C)sc(NC(=O)c2c(-c3ccccc3Cl)noc2C)c1C(=O)OC`: the displacement is -5.4%.

`O=C1c2ccccc2C(=O)N1c1ccc2[nH]c(=S)sc2c1`: the displacement was -34.6%.

As for `Cc1cc(/C=C2\C(=O)NC(=O)N(c3cccc(Br)c3)C2=O)c(C)n1-c1cccnc1`, the displacement is 4.6%.

Turning to `O=C1C2C3C=CC(C2C(=O)N1c1ccccc1F)C1C(=O)N(c2ccccc2F)C(=O)C31` (stereo not drawn), the displacement was found to be 1.3%.

In the case of `O=C(OCC(O)CNC12CC3CC(CC(C3)C1)C2)C12CC3CC(CC(C3)C1)C2` (stereo not drawn), the displacement was -3.3%.

As to `O=C(N/N=C(/c1ccccc1)C(F)(F)F)c1ccncc1`, the displacement came to 11.9%.

`COc1ccc(N(CC(=O)N2CCCC2)S(=O)(=O)c2ccccc2)cc1Cl`: the displacement was 9.2%.

On to `CCOc1cc(OCC)cc(C(=O)Nc2cccc([N+](=O)[O-])c2)c1`, for which the displacement stood at 5.7%.

On to `COc1ccccc1/C=C/C=N\N1CCN(c2ccccc2OC)CC1`, for which the displacement is -2.4%.

Consider `COc1ccc(-n2nc3cc(C)c(NC(=O)c4cc(Cl)c(OC)c(Cl)c4)cc3n2)cc1`, for which the displacement was found to be 5.6%.

In the case of `O=C(CCc1n[nH]c(=O)[nH]c1=O)N/N=C/c1c[nH]c2ccccc12`, the displacement was -0.8%.

`Cc1onc(-c2ccccc2Cl)c1C(=O)Nc1cccc2cccnc12`: the displacement was -0.3%.

For the molecule `O=C(Nc1ccc(-c2nnc(-c3ccccc3)o2)cc1)c1ccc(Cl)cc1`, the displacement amounted to 3.1%.

On to `O=C(O)CCCCCN1C(=O)C(=O)/C(=C(/O)c2ccc(F)cc2)C1c1ccccc1[N+](=O)[O-]` (stereo not drawn), for which the displacement was -1.3%.
